# Results published in PubChem BioAssay AID720542 (National Center for Advancing Translational Sciences (NCATS), 2013).
# Hit rate of the full screen: of about 360,000 compounds, about 740 (0.21%) were called active. The shares of active, inactive and inconclusive entries below differ from those in the screen. Calls follow the shape of the dose curve; as a rule, active = well fitted inhibition curve with a large enough effect; inconclusive = small, poorly fitted or top-dose-only effect; inactive = no such curve, though single readings can be large or run the other way. Potencies of inconclusive entries are left out as doubtful fits.
# Test system: Plasmodium falciparum AMA1 (3D7) - RON2 peptide interaction
# Assay: qHTS for Inhibitors of AMA1-RON; Towards Development of Antimalarial Drug Lead: Primary Screen; also: nearly all actives have a fitted effect of over 45% in size;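 as to activity change, negative = inhibition: 0% = vehicle wells and -100% = peptide control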
# Settings: AlphaScreen AMA1-biotinylated RON2 peptide binding; activity change, negative = inhibition: at 58.2 µM (top of the series) unless noted
# How it was run: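 AMA1 (3D7) with his tag at 25 nM final met compounds first, then biotinylated RON2 peptide at 25 nM; detection used donor plus acceptor beads, 10 µg/mL apiece, read by AlphaScreen after 30 min at room temperature.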
# Potency is read from the fitted curve at half-maximal effect; tags tell the direction and shape of the fitted curve.
SMILES,Potency,"activity change, negative = inhibition"
C#CCOCCOCCOCCNc1nc(N2CCN(C(=O)CCCCCCCCCCNC(=O)Cn3cc(CCCCCN)nn3)CC2)nc(N2CCN(C(=O)CCCCCCCCCCNC(=O)Cn3cc(C[C@@H](C)O)nn3)CC2)n1,"inconclusive [inhibitor, single point]",–
CN(C)c1ccc(/C=N/NC(=O)c2cnc3ccccc3c2)cc1,–,inactive: 17.6%
OC(CNCC(c1ccc(Cl)cc1Cl)c1c[nH]c2ccccc12)c1ccccc1 (stereo not given),"inconclusive [inhibitor, partial curve]",–
CCNC(=S)N1CCN(Cc2ccccc2)CC1,"inconclusive [inhibitor, partial curve]",–
COc1ccccc1NC(=O)C(C)OC(=O)Cn1cnc2c1c(=O)n(C)c(=O)n2C (stereo not given),"inconclusive [inhibitor, full curve]",–
COc1ccc2c(c1)C=C(CN1CCC(CO)(CCc3ccccc3)CC1)CO2,"inconclusive [inhibitor, partial curve]",–
O=C(Nc1cccnc1)OC1CCCC1,–,inactive: -2.15%
Cc1ccc2c(c1)CNc1ccccc1O2,–,inactive: -5.02%
COC(=O)c1ccc(OCCCCN(C)Cc2ccccc2)cc1,"inconclusive [inhibitor, partial curve]",–
CCc1ccc(S(=O)(=O)/N=C2\C=C(Nc3ccc(C(=O)O)cc3)C(=O)c3ccccc32)cc1,"inconclusive [inhibitor, single point]",–
CNC(C)C(=O)NC(C(=O)N1CCCC1C(=O)NNc1ccccc1)C(C)C (stereo not given),–,inactive: 62.3%
Cc1ccc(C)c2c1CCC(=Cc1ccccc1[N+](=O)[O-])C2=O,"inconclusive [inhibitor, partial curve]",–
Cc1ccc(-n2cc(CNC(C)Cn3cncn3)c(-c3ccc(F)cc3)n2)cc1 (stereo not given),–,inactive: -9.9%
COC1=C(Nc2ccc(O)cc2)C(=O)c2ccccc2C1=O,"inconclusive [inhibitor, partial curve]",–
COc1ccc(S(=O)(=O)N(CC(=O)NCc2cccnc2)Cc2ccccc2)cc1,"inconclusive [inhibitor, single point]",–
Cc1nn(C)cc1-c1n[nH]c(=S)n1-c1ccc(Cl)cc1,–,inactive: 44.8%
CS(=O)(=O)N1CCC(Oc2ccccc2C(=O)NCCCc2cccnc2)CC1,–,inactive: 6.42%
Clc1cccc(CSc2ccc(-c3ccco3)nn2)c1,"inconclusive [inhibitor, single point]",–
COC(=O)c1ccc2c(c1)C(C)(C)C(/C=C/c1ccccc1O)=[N+]2C,"inconclusive [inhibitor, partial curve]",–
CN1CCN(c2ccc(-c3cc(NC=O)c4ncc(-c5ccccc5)n4c3)cc2)CC1,"inconclusive [inhibitor, single point]",–
CCCCn1c(NCc2ccc(N(C)C)cc2)nc2ccccc21,"inconclusive [inhibitor, single point]",–
COc1cccc(CC2(CO)CCN(Cc3cnc(-c4cccc(C)c4)nc3)CC2)c1,"inconclusive [inhibitor, partial curve]",–
CC(CCc1ccc(O)cc1)NCCc1ccc(O)c(O)c1 (stereo not given),"inconclusive [inhibitor, partial curve]",–
COCc1cc(N2CCOCC2)nc(SCc2ccc(Cl)cc2)n1,–,inactive: 26.1%

SMILES,Potency,"activity change, negative = inhibition"
Cc1nnc(SCCN2CCOCC2)n1-c1cccc(Cl)c1,"inconclusive [inhibitor, single point]",–
CCCCNC(=O)C(NC(=O)c1cccs1)C(=O)c1ccccc1 (stereo not given),–,inactive: -4.5%
Cc1ccc(N2C(=O)NC(=O)/C(=C\c3cc(C)n(-c4sc5c(c4C#N)CCCC5)c3C)C2=O)cc1,–,inactive: -7.16%
CCOc1cc(Br)ccc1S(=O)(=O)N1CC(C)OC(C)C1 (stereo not given),"inconclusive [inhibitor, partial curve]",–
Cc1ccc(S(=O)(=O)N2CCN(CCc3ccccc3)CC2)c(C)c1,"inconclusive [inhibitor, single point]",–
Cc1ccc2[nH]c(=O)c(CN(Cc3ccccc3)Cc3nnnn3C3CCCC3)cc2c1,"inconclusive [inhibitor, single point]",–
COc1ccccc1Nc1nc(N)nc(CSC(=S)N2CCCCC2C)n1 (stereo not given),–,inactive: 8.6% [at 2.32 µM]
Cc1ccc([N+](=O)[O-])c(OCCN2CCNCC2)c1,"inconclusive [inhibitor, partial curve]",–
C=CCN(C(=O)CSc1nc2c(sc3ccccc32)c(=O)n1CCN(CC)CC)c1ccccc1,"inconclusive [inhibitor, partial curve]",–
COc1cccc(CN2CCN(c3cccc(C(F)(F)F)c3)CC2)c1OC,"inconclusive [inhibitor, partial curve]",–
CN1CC(C(=O)c2ccc(Cl)cc2)C(c2ccc(Cl)cc2Cl)C1 (stereo not given),active: 31.6 µM,–
CC1CC(C)CN(C(=O)C(C)N2CCN(S(=O)(=O)c3ccc(Br)s3)CC2)C1 (stereo not given),–,inactive: -5.84%
CCOC(=O)C(C)On1c(-c2cccc(Cl)c2)nc2ccc([N+](=O)[O-])cc21 (stereo not given),–,inactive: -15%
O=c1c(Cc2ccccc2)c(O)ccn1CCc1cnc[nH]1,–,inactive: 6.97%
NC(=O)CN1CCN(Cc2ccc3c(c2)OCO3)CC1,–,inactive: -2.31%
Cc1ccc(NC(=O)CSc2nnc(C3CC3)n2C)cc1S(=O)(=O)N1CCCCC1,–,inactive: 5.1%
Cc1ccc(C(=O)NCC(c2ccco2)N2CCc3ccccc32)cc1 (stereo not given),"inconclusive [inhibitor, single point]",–
O=C(Nc1ccc(-n2nncc2-c2ccco2)cc1)c1cc2ccccc2oc1=O,"inconclusive [inhibitor, full curve]",–
COCC(C)NC(=O)COCc1cc(-c2ccc3c(c2)OCO3)on1 (stereo not given),–,inactive: -2.78%
CCn1c2ccccc2c2cc(CN3CCN(Cc4cc(OC)ccc4O)CC3)ccc21,active: 12.6 µM,–
CC1CCN(CC(=O)Nc2ccc(N3CCCCCC3)cc2)CC1,"inconclusive [inhibitor, single point]",–
COCCn1c(-c2ccc(OC)cc2)c(-c2ccc(OC)cc2)oc1=O,–,inactive: -18.3%
Cc1cccc2c1N(CCOc1ccccc1Cl)C(=O)C2=O,"inconclusive [inhibitor, single point]",–
CCCCSCCCNC(=O)Nc1ccc(CC)cc1,"inconclusive [inhibitor, full curve, poor fit]",–

SMILES,Potency,"activity change, negative = inhibition"
Oc1c(N=Nc2ccccn2)ccc2ccccc12,"inconclusive [inhibitor, single point]",–
CCOC(=O)/C(C#N)=C/c1cn(CCOc2ccccc2)c2ccccc12,–,inactive: -2.71%
Oc1ccccc1CC=NC1CCCCC1,"inconclusive [inhibitor, full curve]",–
COc1ccc(OC)c(NC(=O)CN2CCc3ccccc3C2)c1,"inconclusive [inhibitor, single point]",–
CC1CN(C(=O)CS(=O)(=O)Cc2ccc(Cl)cc2)CC(C)O1 (stereo not given),–,inactive: -6.54%
Cc1cc(F)ccc1NS(=O)(=O)c1c(C)nc2scc(C)n2c1=O,"inconclusive [inhibitor, single point]",–
COc1ccc(OC)c(Nc2nc(NCc3ccco3)c3ccccc3n2)c1,"inconclusive [inhibitor, single point]",–
CCN1C(=O)C2C(C1=O)N1C(c3ccccc3)C3C(=O)N(CC)C(=O)C3N1C2c1ccccc1 (stereo not given),"inconclusive [inhibitor, single point]",–
COc1ccc(N=C2NN=C(c3c(C)[nH]c4ccccc34)CS2)cc1,"inconclusive [inhibitor, full curve, poor fit]",–
COc1ccc(N2CCC(CNC(=S)Nc3ccc(C)cc3C)C2)cc1 (stereo not given),"inconclusive [inhibitor, partial curve, poor fit]",–
CN(C)/N=C/c1ccc([N+](=O)[O-])cc1[N+](=O)[O-],"inconclusive [inhibitor, partial curve]",–
O=C(C1CCN(S(=O)(=O)Cc2ccccc2)CC1)N1CCN(c2ncccn2)CC1,"inconclusive [inhibitor, full curve]",–
COc1ccccc1C(=O)NC(=S)/C=C1/N(C)c2ccccc2C1(C)C,"inconclusive [inhibitor, partial curve]",–
CC(=O)Nc1cc(-c2cccc(N)c2)cn2c(-c3ccccc3)cnc12,"inconclusive [inhibitor, single point]",–
O=[N+]([O-])c1cc(-n2cnnn2)ccc1N1CCC(Cc2ccccc2)CC1,"inconclusive [inhibitor, single point]",–
O=C(Nc1cccc(Cl)c1)c1csc([C@H]2C[C@H](O)[C@@H](CO)O2)n1,–,inactive: -4.82%
CCc1ccc2cccc3c2c1N=CN3C,"inconclusive [inhibitor, single point]",–
COc1ccc(C(NCC(=O)NC(C)c2ccc(Cl)cc2)c2ccccc2)cc1 (stereo not given),"inconclusive [inhibitor, single point]",–
Cc1cc(N2C(=O)c3ccc(C(=O)Nc4ccc(O)cc4C(=O)O)cc3C2=O)no1,"inconclusive [inhibitor, partial curve]",–
O=C(NCC(c1ccco1)N1CCc2ccccc21)c1cccc([N+](=O)[O-])c1 (stereo not given),–,inactive: -29.4%
Cc1ccc(NC(=O)C2CCN(c3ncnc4c3nc3n4CCCCC3)CC2)nc1,"inconclusive [inhibitor, single point]",–
COC(=O)c1cc2occc2n1Cc1cccc(C)c1,"inconclusive [inhibitor, single point]",–
